# PubChem BioAssay AID360 (National Center for Advancing Translational Sciences (NCATS), 2006)
# Out of some 48,000 compounds screened, about 550 (1.1%) were called active. Another 4% or so got no clear call; they are omitted. Rule as the data show it: active = potency below about 15 µM; inconclusive = mostly about 16 µM to 33 µM; inactive = weaker than that. The list shows a part of the results.
# Biological target: Lysosomal acid glucosylceramidase (Homo sapiens) (UniProt P04062)
# Experiment: Glucocerebrosidase;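 also: the screen sought inhibitors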
# Conditions: purified enzyme, resorufin glucoside fluorescence (screen aimed at inhibitors), 20 min
# How it was run: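 Compounds titrated against 0.2 nM normal enzyme, 30 uM resorufin beta-D-glucopyranoside substrate, citrate/phosphate buffer with taurocholate and tween-20, pH 5.9. Reaction ran 20 min at room temperature; fluorescence (Ex 548/Em 600) gave AC50.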
# Potency is read from the fitted curve at half-maximal effect.
# Sequence of UniProt P04062 (P04062 whole entry, looked up): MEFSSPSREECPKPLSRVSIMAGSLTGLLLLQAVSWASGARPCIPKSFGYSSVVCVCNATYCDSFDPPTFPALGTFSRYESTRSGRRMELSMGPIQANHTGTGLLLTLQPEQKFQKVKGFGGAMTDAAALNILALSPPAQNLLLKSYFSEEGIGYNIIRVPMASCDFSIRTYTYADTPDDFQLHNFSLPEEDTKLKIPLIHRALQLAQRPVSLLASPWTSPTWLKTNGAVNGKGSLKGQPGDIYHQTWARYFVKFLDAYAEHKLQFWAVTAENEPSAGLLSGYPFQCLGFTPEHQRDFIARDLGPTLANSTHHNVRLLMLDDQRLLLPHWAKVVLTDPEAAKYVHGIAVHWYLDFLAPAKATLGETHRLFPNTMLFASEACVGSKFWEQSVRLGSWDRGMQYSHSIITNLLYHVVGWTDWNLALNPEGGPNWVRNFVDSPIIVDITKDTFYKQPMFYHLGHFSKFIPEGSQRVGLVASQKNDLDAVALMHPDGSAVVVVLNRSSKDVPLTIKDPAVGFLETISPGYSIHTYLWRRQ
row,SMILES,Potency
1,COCCN(CC(=O)NCc1ccccc1)C(=O)CCC(=O)Nc1ccccn1,inactive: > 76.9 µM
2,Cc1nn2c(-c3ccc(Cl)cc3Cl)nnc2s1,inactive: > 76.9 µM
3,Cc1cc(NC(=O)CSC2=NCCS2)no1,inactive: > 76.9 µM
4,O=S(=O)(c1ccc(Br)s1)N1CCN(c2ccccn2)CC1,inactive: > 76.9 µM
5,CC(C)N(C(=O)CSc1nnnn1C1CCCC1)C(C)C,inactive: > 76.9 µM
6,Cc1cccc(NC(=O)CCNS(=O)(=O)c2cccc3nsnc23)c1,inactive: > 76.9 µM
7,CCOc1ccc(C(=O)N2CCCC2C(=O)O)cc1 (centres undefined),inactive: > 76.9 µM
8,CC1(C)C(=O)C2(CCCCC2)C(=O)OC1c1cccs1 (centres undefined),inactive: > 76.9 µM
9,CCOC(=O)c1cc2c(ccn2C)n1CC(=O)N1CCN(c2ccc(F)cc2)CC1,inactive: > 76.9 µM
10,CCCn1c(CNC(=O)c2ccccc2)nc2ccccc21,inactive: > 76.9 µM
11,CC(=O)c1cccc(NC(=O)CN(c2ccc(C)cc2)S(=O)(=O)c2cccc3nonc23)c1,inactive: > 15.4 µM
12,CC1CN(C(=O)c2cc(F)c(F)cc2Cl)CC(C)O1 (centres undefined),inactive: > 76.9 µM
13,CC(=O)c1ccc(Nc2nc(C)nc3c2oc2ccccc23)cc1,inactive: > 76.9 µM
14,CCCNC(=O)Cc1ncn[nH]1,inactive: > 76.9 µM
15,Cn1c(SCC(=O)NCc2ccc3c(c2)OCO3)nnc1-c1c[nH]c2ccccc12,inactive: > 76.9 µM
16,O=C(Nc1nc(-c2nc3ccccc3s2)cs1)c1ccc(S(=O)(=O)N2CCOCC2)cc1,inactive: > 76.9 µM
17,Cc1cc(C)c2c(c1)-c1cc(C)nn1C(c1ccc3c(c1)OCO3)N2 (centres undefined),inactive: > 76.9 µM
18,Cc1cccc(-n2c(SCCC(=O)O)nnc2-c2cccs2)c1C,inactive: > 76.9 µM
19,Cc1sc2nc(SCC(=O)NCc3ccco3)n(CCc3ccccc3)c(=O)c2c1C,inactive: > 76.9 µM
20,CCN1CCN(c2ncc(C(=O)N3CCCc4ccccc43)c3ccccc23)CC1,inactive: > 76.9 µM
21,CCOC(=O)N1CCN(C(=O)CSc2nnc(-c3cccc(OC)c3)o2)CC1,inactive: > 76.9 µM
22,CCCN(CCC)CCCNC(=O)CS(=O)Cc1nc(-c2ccc(OC)c(OC)c2)oc1C (centres undefined),inactive: > 76.9 µM
23,CCCC(=O)Nc1cc(OC)c(NC(=O)NC2CCCCC2)cc1OC,inactive: > 76.9 µM

row,SMILES,Potency
1,Cc1noc(C)c1C(=O)NCCc1ccc(Cl)cc1,inactive: > 76.9 µM
2,COc1ccc(N(Cc2cc3cc(OC)ccc3[nH]c2=O)C(=O)c2cccnc2)cc1,inactive: > 76.9 µM
3,CC1(C)OC(=O)C(C(c2ccccc2)C(C#N)C(N)=O)=C(O)O1 (centres undefined),inactive: > 76.9 µM
4,COc1ccc(C2(O)CCN(Cc3nnnn3Cc3ccc(C)cc3)CC2)cc1,inactive: > 76.9 µM
5,COc1ccccc1-c1nnc2sc(-c3cnccn3)nn12,inactive: > 76.9 µM
6,COC(=O)[C@H](Cc1ccccc1)NC(=O)NCC1CCCO1 (some centres undefined),inactive: > 76.9 µM
7,Cc1c(NS(=O)(=O)c2ccc3c(c2)c(=O)n(C)c(=O)n3C)c(=O)n(-c2ccccc2)n1C,inactive: > 76.9 µM
8,CCC(C)N1C(=O)C2C(C(=O)Nc3cccc(OC)c3)C3C=CC2(O3)C1C(=O)NC1CCCCC1C (centres undefined),inactive: > 76.9 µM
9,CC(C)Nc1nc(N(c2ccccc2)c2ccccc2)nc(-n2ccnc2)n1,inactive: > 76.9 µM
10,COc1ccc(OCC(=O)Nc2cccc3cccnc23)cc1,inactive
11,CCOC(=O)c1cc(C(O)(C(F)(F)F)C(F)(F)F)c(/N=C/N(C)C)o1,inactive: > 76.9 µM
12,O=C(CN1CCN(Cc2ccccc2)C1=O)NCc1ccc(Cl)cc1,inactive: > 76.9 µM
13,COC(=O)c1ccc(C2C(C(C)=O)=C(O)C(=O)N2CCO)cc1 (centres undefined),inactive: > 76.9 µM
14,COC(=O)c1ccc(S(=O)(=O)N2CCCCCC2)cc1,inactive: > 76.9 µM
15,COc1ccc(C(=O)CSc2nnc(C3CCCCC3)n2N)c(OC)c1,inactive: > 76.9 µM
16,CCCCN(CC)S(=O)(=O)c1ccc2c(c1)CCCN2C(C)=O,inactive: > 76.9 µM
17,O=C(Nn1cnnc1)c1cc2cc(Br)ccc2oc1=O,inactive: > 76.9 µM
18,Cc1nc2cc(C(=O)NCCN3CCOCC3)ccc2n1-c1ccc(F)cc1F,inactive
19,CCN(CC)CCN1C(=O)C(=O)/C(=C(/O)c2c(C)[nH]c(C(=O)OC)c2C)C1c1ccccc1OC (centres undefined),inactive: > 76.9 µM
20,CCOC(=O)CSC1=C(C#N)C(c2ccco2)C(C(=O)Nc2cccc(C(F)(F)F)c2)=C(C)N1 (centres undefined),inactive
21,O=C(Nc1ccccc1N1CCN(C(=O)c2ccccc2)CC1)c1ccc2c(c1)OCO2,inactive: > 76.9 µM
22,CCC(=O)Nc1nonc1-c1nc2ccccc2n1Cc1ccc(Cl)c(Cl)c1,inactive: > 76.9 µM
23,C=CCn1c(SCC(=O)N2CCOCC2)nc2scc(-c3ccco3)c2c1=O,inactive: > 76.9 µM

row,SMILES,Potency
1,Cc1occc1-c1nnc(SCC(=O)NCC2CCCO2)n1C (centres undefined),inactive: > 76.9 µM
2,CC(C)C(=O)NC(C)C(c1cccs1)N1CCN(c2ccccc2)CC1 (centres undefined),inactive: > 76.9 µM
3,CSc1nc(-c2ccco2)cc(-c2ccccc2)c1C#N,inactive
4,COc1ccc(C(=O)Nc2ccccc2C(N)=O)cc1,inactive: > 76.9 µM
5,Cc1nc(NC(=O)C2CC2)sc1C(=O)N1CCCCC1,inactive: > 76.9 µM
6,Cc1nn(-c2ccc(Cl)cc2)c2sc(C(=O)N3CCN(C(=O)c4ccco4)CC3)cc12,inactive: > 76.9 µM
7,O=S1(=O)NC(=NC2CCCCCC2)c2ccccc21,inactive: > 76.9 µM
8,COc1ccc(C(OC(=O)c2ccco2)C(=O)NC2CCCCC2)cc1OC (centres undefined),inactive: > 76.9 µM
9,Cc1ccc(-n2c(SCC(=O)NCC3CCCO3)nnc2-c2ccoc2C)cc1 (centres undefined),inactive: > 76.9 µM
10,COc1ccccc1-c1ccc(=O)n(CC(=O)NC(C)(C)C)n1,inactive: > 76.9 µM
11,CCOC(=O)c1c(C)oc2ccc(OCC(=O)N(CC)CC)cc12,inactive: > 76.9 µM
12,O=c1oc(-c2ccccc2)nc2c1cnn2-c1ccccc1,inactive: > 76.9 µM
13,CCOC(=O)N1CCN(C(=O)C2CCCN(S(=O)(=O)c3cc(C)ccc3OC)C2)CC1 (centres undefined),inactive: > 76.9 µM
14,Nc1nc(NCc2cccs2)nn1-c1ccccc1,inactive: > 76.9 µM
15,CCOC(=O)N1CCN(C(=O)CCc2ccc(S(=O)(=O)NCCc3ccccc3)cc2)CC1,inactive: > 76.9 µM
16,CCn1c(SCc2ccc(C#N)cc2)nnc1-c1cccc(Cl)c1,inactive: > 76.9 µM
17,Cc1nonc1NC(=O)OCCN1CCOC1=O,inactive: > 76.9 µM
18,O=C1CN(C(=O)COC(=O)c2ccccc2NC(=O)c2ccco2)c2ccccc2N1,inactive: > 76.9 µM
19,CS(=O)(=O)NCCSc1nnnn1-c1ccccc1,inactive: > 76.9 µM
20,O=C(c1cccc(S(=O)(=O)N2CCCCC2)c1)N1CCOCC1,inactive: > 76.9 µM
21,COc1ccc(S(=O)(=O)N2CCC(C(=O)c3ccc4c(c3)OCCO4)CC2)cc1,inactive: > 76.9 µM
22,CN(c1ccccc1C(=O)Nc1ccc2c(c1)OCCO2)S(C)(=O)=O,inactive: > 76.9 µM
23,O=C(Cn1cc(C(=S)N2CCOCC2)c2ccccc21)N1CCOCC1,inactive: > 76.9 µM

row,SMILES,Potency
1,Nc1nc2c3ccccc3nc(C3CC3)n2n1,inactive: > 76.9 µM
2,O=C(c1cn(CC(=O)N2CCCCC2)c2ccccc12)C1CC1,inactive: > 76.9 µM
3,Cn1c(C2CCCN2C(=O)OC(C)(C)C)n[nH]c1=S (centres undefined),inactive: > 76.9 µM
4,COc1cc2[nH]c3c(=O)n(CCN4CCCCC4)cnc3c2cc1OC,inactive: > 76.9 µM
5,Cc1cc(C(=O)Nc2ccccc2C(F)(F)F)no1,inactive: > 76.9 µM
6,Cc1ccc(NC(=O)c2cnn(-c3ccccc3)c2NC(=O)c2ccco2)cc1C,inactive: > 76.9 µM
7,Cc1cc(C)cc(NC(=O)N2CCC(c3nc4ccccc4o3)CC2)c1,inactive: > 76.9 µM
8,COc1ccc(C(=O)NCc2cccnc2)cc1S(=O)(=O)N1CCOCC1,inactive: > 76.9 µM
9,O=C(O)c1ccc(NCc2ccc3c(c2)OCO3)cc1,inactive: > 76.9 µM
10,O=C(Nc1ccc(NC(=O)C2CCCN2C(=O)OCc2ccccc2)cc1)c1ccco1 (centres undefined),inactive
11,Cc1[nH]c2ccccc2c1C(=O)CSc1ncn[nH]1,inactive: > 76.9 µM
12,CCn1c(SCC(=O)N2CCCC2)nc2c1c(=O)n(C)c(=O)n2C,inactive: > 76.9 µM
13,Cc1nn(C)cc1NC(=O)CCSc1nc(-c2ccco2)cc(C(F)(F)F)n1,inactive: > 76.9 µM
14,Cc1c(NC(=O)C(C)OC(=O)COc2cccc3c2OC(C)(C)C3)c(=O)n(-c2ccccc2)n1C (centres undefined),inactive: > 76.9 µM
15,COc1cccc(N(C(=O)Cn2nnc3ccccc32)C(C(=O)NCc2ccco2)c2cccnc2)c1 (centres undefined),inactive
16,CCOc1ccccc1OCC(=O)Nc1ccc(S(=O)(=O)Nc2ncccn2)cc1,inactive: > 76.9 µM
17,CCCCCCn1c(SCC(=O)Nc2cc(C)on2)nc2ccccc2c1=O,inactive: > 76.9 µM
18,COC(=O)C1=C(C)NC(=O)NC1c1cn(-c2ccccc2)nc1-c1cccs1 (centres undefined),inactive: > 76.9 µM
19,COc1ccccc1-c1cc(C(F)(F)F)nc(S(=O)(=O)CCCC(=O)Nc2cc(C)on2)n1,active: 9.43 µM
20,O=C(CNC(=O)Cn1ccc2ccccc2c1=O)NCCCN1CCN(c2cccc(Cl)c2)CC1,inactive: > 76.9 µM
